In the supplement of paper PMC8728848:
The other results are listed elsewhere or left out.

Assays:
Assay in all cases: glycan array binding signal (z-score within array); higher = stronger binding
Conditions in all cases: glycan notation: IUPAC condensed, linker removed
[1] = biological target: Fuc(a1-3)[Gal(b1-4)]GlcNAc(b1-3)Gal(b1-4)[Fuc(a1-3)]GlcNAc
Procedure, shortened: (§1)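 The Consortium for Functional Glycomics database supplied 3228 glycan arrays, of which those lacking an available protein sequence were dropped. The binding signal, a within-array Z-score, was averaged across arrays of the same protein sequence and across linkers. Negative scores can be read as non-binding.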

[2] = biological target: Fuc(a1-3)[Gal(b1-4)]GlcNAc(b1-3)Gal(b1-4)[Fuc(a1-3)]GlcNAc(b1-3)Gal(b1-4)[Fuc(a1-3)]GlcNAc
Procedure, shortened: as §1

[3] = biological target: Fuc(a1-3)[Gal(b1-4)]GlcNAc(b1-3)GalNAc
Procedure, shortened: as §1

[4] = biological target: Fuc(a1-3)[Gal(b1-4)]GlcNAc(b1-6)GalNAc
Procedure, shortened: as §1

[5] = biological target: Fuc(a1-3)[Gal(b1-4)]GlcNAc(b1-6)[Gal(b1-3)GlcNAc(b1-3)]Gal(b1-4)Glc
Procedure, shortened: as §1

[6] = biological target: Fuc(a1-3)[Gal(b1-4)]GlcNAc6S
Procedure, shortened: as §1

[7] = biological target: Fuc(a1-3)[Gal3S(b1-4)]Glc
Procedure, shortened: as §1

[8] = biological target: Fuc(a1-3)[Gal3S(b1-4)]GlcNAc
Procedure, shortened: as §1

[9] = biological target: Fuc(a1-3)[Gal3S(b1-4)]GlcNAc6S
Procedure, shortened: as §1

[10] = biological target: Fuc(a1-3)[GalNAc(b1-4)]GlcNAc
Procedure, shortened: as §1

[11] = biological target: Fuc(a1-3)[GalNAc(b1-4)]GlcNAc6S
Procedure, shortened: as §1

[12] = biological target: Fuc(a1-4)GlcNAc
Procedure, shortened: as §1

[13] = biological target: Fuc(b1-3)GlcNAc
Procedure, shortened: as §1

[14] = biological target: Gal(a1-2)Gal
Procedure, shortened: as §1

[15] = biological target: Gal(a1-3)Gal
Procedure, shortened: as §1

[16] = biological target: Gal(a1-3)Gal(b1-3)GlcNAc
Procedure, shortened: as §1

[17] = biological target: Gal(a1-3)Gal(b1-3)GlcNAc(b1-2)Man
Procedure, shortened: as §1

[18] = biological target: Gal(a1-3)Gal(b1-3)GlcNAc(b1-2)Man(a1-3)[Gal(a1-3)Gal(b1-3)GlcNAc(b1-2)Man(a1-6)]Man(b1-4)GlcNAc(b1-4)GlcNAc
Procedure, shortened: as §1

[19] = biological target: Gal(a1-3)Gal(b1-3)GlcNAc(b1-3)GalNAc
Procedure, shortened: as §1

[20] = biological target: Gal(a1-3)Gal(b1-3)GlcNAc(b1-6)GalNAc
Procedure, shortened: as §1

[21] = biological target: Gal(a1-3)Gal(b1-3)[Fuc(a1-4)]GlcNAc(b1-2)Man(a1-3)[Gal(a1-3)Gal(b1-3)[Fuc(a1-4)]GlcNAc(b1-2)Man(a1-6)]Man(b1-4)GlcNAc(b1-4)GlcNAc
Procedure, shortened: as §1

[22] = biological target: Gal(a1-3)Gal(b1-4)Glc
Procedure, shortened: as §1

[23] = biological target: Gal(a1-3)Gal(b1-4)GlcNAc
Procedure, shortened: as §1

[24] = biological target: Gal(a1-3)Gal(b1-4)GlcNAc(b1-2)Man
Procedure, shortened: as §1

[25] = biological target: Gal(a1-3)Gal(b1-4)GlcNAc(b1-2)Man(a1-3)[Gal(a1-3)Gal(b1-4)GlcNAc(b1-2)Man(a1-6)]Man(b1-4)GlcNAc(b1-4)GlcNAc
Procedure, shortened: as §1

[26] = biological target: Gal(a1-3)Gal(b1-4)GlcNAc(b1-3)GalNAc
Procedure, shortened: as §1

[27] = biological target: Gal(a1-3)Gal(b1-4)GlcNAc(b1-6)GalNAc
Procedure, shortened: as §1

[28] = biological target: Gal(a1-3)Gal(b1-4)[Fuc(a1-3)]GlcNAc
Procedure, shortened: as §1

[29] = biological target: Gal(a1-3)Gal(b1-4)[Fuc(a1-3)]GlcNAc(b1-2)Man(a1-3)[Gal(a1-3)Gal(b1-4)[Fuc(a1-3)]GlcNAc(b1-2)Man(a1-6)]Man(b1-4)GlcNAc(b1-4)GlcNAc
Procedure, shortened: as §1

[30] = biological target: Gal(a1-3)GalNAc
Procedure, shortened: as §1

[31] = biological target: Gal(a1-3)[Gal(a1-4)]Gal(b1-4)GlcNAc
Procedure, shortened: as §1

[32] = biological target: Gal(a1-4)Gal(b1-3)GlcNAc(b1-2)Man(a1-3)[Gal(a1-4)Gal(b1-3)GlcNAc(b1-2)Man(a1-6)]Man(b1-4)GlcNAc(b1-4)GlcNAc
Procedure, shortened: as §1

[33] = biological target: Gal(a1-4)Gal(b1-4)Glc
Procedure, shortened: as §1

[34] = biological target: Gal(a1-4)Gal(b1-4)GlcNAc
Procedure, shortened: as §1

[35] = biological target: Gal(a1-4)Gal(b1-4)GlcNAc(b1-2)Man(a1-3)[Gal(a1-4)Gal(b1-4)GlcNAc(b1-2)Man(a1-6)]Man(b1-4)GlcNAc(b1-4)GlcNAc
Procedure, shortened: as §1

[36] = biological target: Gal(a1-4)Gal(b1-4)GlcNAc(b1-3)Gal(b1-4)Glc
Procedure, shortened: as §1

[37] = biological target: Gal(a1-4)GlcNAc
Procedure, shortened: as §1

[38] = biological target: Gal(a1-6)Glc
Procedure, shortened: as §1

B1: Epa3to1 (Candida glabrata) (protein)
chain: MGSSHHHHHHSSGLVPRGSHMKRELSSQNPFGYPIGCSPQDVAIIPGLTMELYSYPIVSGTPPNCYDASYVDPEYPRTGYLKRKMVGKSTGVTGNLNYKYSVEKACMVKYGNLPAGYNYNEPLTVSNFTMILYGYFKAQTTGLHTFFVNADDLLYINFGAGNAFDCCKREDSKTKLGEYVAYDIWHVDSSKNKVSLFLEKDLYYPIRMFFNNREYDSSLDLSFSVNGATDQISDFSGYLYSVPDQPDTCPAHIGYDTTCR
Q: Which results are given for B1?
A: glycan array binding signal (z-score) [1]: -0.397; glycan array binding signal (z-score) [2]: -0.177; glycan array binding signal (z-score) [3]: 0.211; glycan array binding signal (z-score) [4]: -0.714; glycan array binding signal (z-score) [5]: 0.125; glycan array binding signal (z-score) [6]: 0.794; glycan array binding signal (z-score) [7]: -0.326; glycan array binding signal (z-score) [8]: -0.319; glycan array binding signal (z-score) [9]: 0.359; glycan array binding signal (z-score) [10]: -0.148; glycan array binding signal (z-score) [11]: -0.498; glycan array binding signal (z-score) [12]: 0.771; glycan array binding signal (z-score) [13]: -0.035; glycan array binding signal (z-score) [14]: -0.322; glycan array binding signal (z-score) [15]: 1.67; glycan array binding signal (z-score) [16]: 0.136; glycan array binding signal (z-score) [17]: 1.23; glycan array binding signal (z-score) [18]: 0.169; glycan array binding signal (z-score) [19]: -0.594; glycan array binding signal (z-score) [20]: 1.36; glycan array binding signal (z-score) [21]: -0.283; glycan array binding signal (z-score) [22]: 0.115; glycan array binding signal (z-score) [23]: 0.851; glycan array binding signal (z-score) [24]: -0.341; glycan array binding signal (z-score) [25]: 0.176; glycan array binding signal (z-score) [26]: 1.25; glycan array binding signal (z-score) [27]: 0.248; glycan array binding signal (z-score) [28]: -0.405; glycan array binding signal (z-score) [29]: -0.206; glycan array binding signal (z-score) [30]: -0.338; glycan array binding signal (z-score) [31]: 0.151; glycan array binding signal (z-score) [32]: 0.42; glycan array binding signal (z-score) [33]: 0.093; glycan array binding signal (z-score) [34]: 0.776; glycan array binding signal (z-score) [35]: -0.043; glycan array binding signal (z-score) [36]: 0.497; glycan array binding signal (z-score) [37]: 3.41; glycan array binding signal (z-score) [38]: 1.7
